# In PubChem BioAssay (NCI):
# A structure can be active in one record and inactive in another.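 Compound tested at a single concentration for 48 hours in 96-well plates; a percent growth value below 10 was scored as active.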 Not every entry of the source has a single result; some have several. This list holds those alone. An entry can have further records. These are repeated runs of one drug, at the concentration stated with the values; each value is one run. Signs of the kind (2×) give the number of equal values in this list.
# Key:
# [1] = system: A498 renal; experiment: NCI-60 one-dose screen, 48 h (100 = growth as untreated, 0 = no growth, -100 = all killed); settings: 25 µM
# [2] = system: CCRF-CEM leukemia; experiment: as above; settings: 0.25 µM
smiles,measurement,setting,value
COc1cccc2c1C(=O)c1c(O)c3c(c(O)c1C2=O)C[C@@](O)(C(=O)CO)C[C@@H]3OC1CC(N)C(O)C(C)O1 (stereo not given in full),growth,[1]; runs of 1995,"active: -41.4, -75.6, -47.6, -55.2, -66.4, -80.4, -48.8, -14.3, -77.7, -76.9, -39.8, -68.2, -70.3, -78.4, -83.7, -49.7, -81.7, -70.1, -73.7, -83.6, -67.7, -46.8, -38.1, -64.5, -55.7, -16.5, -47.1, -52.9, -55.4, -26.5, -54.4, -86.3, -65.9, -67.4, -51.1, -18.6, -54.9%"
same,growth,[1]; runs of 1996,"active: -82.8 (2×), -47.5, -77.3, -74.6, -73.1, -53.7, -46.8, -32.9, -6.03, -28.5, -31.1, -48.8, -72.1, -40.9, -44.7, -51, -69.6, -75.3, -72.2, -91.7, -64.6, -79, -81.7, -43.2, -45.6, -11.9, -28.6, -55.4, -48.1, -35.7, -82.6, -36.8, -36.2, -22.9, -85.9, -65.8, -73.4, -67.8, -35.1, -85.7, -56.6, -88.4%"
same,growth,[1]; runs of 1997,"active: -64.4, -87.7, -23, -31.1, -84.9, -31.7, -76.5, -82, -49.2, -18.8, -18, -58.2, -89.3, -84.3, -91.9, -76.9, -92.1, -34.9, -61.7, -93.7, -48.2, -51.5, -49.4, -62.3, -34.7, -37.5, -17.2, -12.2, -36, -2.41, -44.5, -78, -75.1, -72.6, -13.7, -84.5% and inactive: 31.6%"
same,growth,[1]; runs of 1998,"active: -63.5, -62.2, -39.8, -18.4, -25.7, -45.4, -37, -22.3, -74.4, -85.1, -49.9, -52.9, -55, -57.6, -49.1, -69.7, -74.3, -66, -65.4%"
same,growth,[1]; runs of 1999,"active: -58.3, -65.2, -68.8, -100, -35, -64.1, -53.1, -88.4, -6.39, -33.3, -55.4, -89.1, -83.9, -30, -88.5%"
same,growth,[1]; runs of 2000,"active: -100% (2×), -60.5%, -94.1%"
same,growth,[2]; runs of 2006,"inactive: 16.2%, 13.4%"
same,growth,[2]; runs of 2007,"active: 7.64, -11.9, 5.62, 2.45, 6.93, 5.93, 2.6, 8.13, -2.76, -17.6, -8.48, 4.89, -1.36, 7.56 (2×), 0.292, 3.2, -6.16, -4.18, -1.38, -16.8, -2.86, 9.85, -5.01% and inactive: 22, 12.1, 13.3, 10.2, 11.7, 12.2, 12.6 (2×), 12.4, 10.8, 17.2, 54.7, 29.3, 23.2, 10.5, 60.2, 19.8, 12.7, 12.5, 11.6%"
same,growth,[2]; runs of 2008,"inactive: 20, 12.6, 11.9 (2×), 19.7 (2×), 61, 18.9, 70.9, 14.8, 22.5, 26.1, 37, 11.8, 13.6, 99.1, 10.7, 16.1 (2×), 13.7 (2×), 14.1, 14.4, 13.3, 38.7, 30.3% and active: 8.84, -0.685, 5.19, 5.66, 9.75, -16.1, -20, 5.68, 1.03, 6.76, 8.53, 9.94, 5.45, 4.56, -0.795, 6.64, -3.65, -6.64, -14, -8.47, -4.89, 8.18, 4.18, 2.91, -4.51, 4.03, 9.35, 0.0237%"
same,growth,[2]; runs of 2009,"inactive: 20.5, 22.6 (2×), 22.2, 15.7, 40.9, 39.8, 56.9, 53.5, 27, 30.9, 32.2, 25.5, 26.4, 32.9, 39.7, 18.1, 26, 24, 25.7, 29.2, 42.5, 26.1, 43.2, 43.8, 27.5 (2×), 24.3, 35.8, 33.9, 25.8, 25.3, 27.4, 35.1, 39.4, 40.4, 33.3, 29.5, 28.9, 14.9, 22, 30.3, 46.5, 33.8, 34.5, 38.4, 37.3, 26.2, 23, 31.3 (2×), 23.6, 20.7% and active: 4.37%, 9.66%"
same,growth,[2]; runs of 2010,"inactive: 35.5, 34.6, 24.4 (4×), 22.6, 26, 35.7, 31.5, 42.6, 44, 31.8, 37.6, 37.4, 30.3, 11, 29.7, 17.5, 16.4, 18.5, 21.8, 22.1, 22.9, 30.1, 14.3, 27.5, 33.7, 18 (2×), 19, 21.9, 21.2, 23.2, 26.3, 21.1, 32.9, 27.4, 30.9, 12.2, 23.4% and active: 2.27%"
same,growth,[2]; runs of 2011,"inactive: 35.7, 18.5, 23.1, 35, 45.2, 32.8, 28.8, 15.8, 27.5, 35.2, 32.6, 36.2, 29.7, 31.5 (2×), 43.6, 41.8, 35.5, 29.8, 27.9, 25.1, 32.9 (2×), 26.3, 57.8, 18.9, 31.3, 16, 36.5, 39.5, 19.4, 17.3, 23, 27.1, 15.1, 24.4, 19, 19.2, 14.1, 20.8, 22.2, 31.4, 18.8, 18.6, 14.3, 12.5, 27, 21.4, 22.6, 20%"
same,growth,[2]; runs of 2012,"inactive: 14.3, 24.9, 31.2, 27.5, 23.2, 21.2, 13.5, 19 (3×), 20.3, 20.4 (3×), 11.9 (2×), 28.8, 24.5, 33.1, 33.3, 26.7, 27.9, 44.1, 56.2, 52.8, 52.2, 60.6, 54.2, 49.9, 50.1, 50, 56.4, 66.8, 59.2, 10.6, 10.3, 21.5, 25, 17.2, 20.8, 30.5, 24.3, 23.7, 27.3, 24, 17.8, 29.3, 16.5, 18.3, 20.2, 15.5, 26% and active: 9.46, 4.14, 8.5, 4.54, 9.91, 9.7, 8.05, 9.75, 7.09, 8.66, 9.85%"
same,growth,[2]; runs of 2013,"inactive: 18, 12, 16.2 (2×), 13.5, 23.8, 17.5 (2×), 18.9 (2×), 18.1, 17.4, 17, 19, 19.2 (2×), 24.2, 18.5, 19.8, 21.2 (2×), 20.7, 15.8, 20.1, 15.7, 11.8, 32.7, 20.3, 18.6, 26.7, 32.2, 12.6, 17.7, 17.3 (2×), 17.8, 17.9, 14.1 (2×), 20.4, 15.9, 16.3, 16.5, 17.2, 14, 23.4, 24.7, 24.3, 26.4, 19.4, 27.5, 20.9, 22.6% and active: 8.68, 6.55, 9.72, 6.29, 4.5, 8.03, 9.37, 9.52, 5.15%"
same,growth,[2]; runs of 2014,"inactive: 33.5, 35.4, 35.1, 27.5, 23.8 (2×), 34.4, 32.4, 31.3, 26.6, 25.5 (2×), 32.6 (2×), 26, 40.2, 27.3, 44, 37.7, 29.5, 45.1, 37.6, 24.6 (2×), 23.1, 28.8, 31.2, 20, 18.1, 15.3 (3×), 17.8, 13.1, 14, 19, 22.6 (2×), 14.8, 13.8, 16.5, 15.5, 22.3, 20.7, 13.2, 12.9, 14.2, 14.4, 16.1, 25.4, 23.7, 33.7, 26.1, 30.1, 33.3, 26.2, 31.8, 10.6, 11.8, 34.2, 36.1, 26.4, 23.6, 15.8 (2×), 19.4, 18.9, 32.5, 37.1, 28.9, 50.3, 49.5, 42.1, 34.6, 24.5, 39.4%"
